Measured values published in PubChem BioAssay (NCATS).
“And” between values parts separate entries of the source, which are not always exact repeats. Equal values may be shown once. This is one part of the list. Further columns of the screen follow, without active or inactive calls. For some assays here: Most of these compounds were active or inconclusive in the main read-out, so they are no random draw. For some assays here: The note in brackets gives the kind of curve behind each potency; many fits are weak.

Experiments:
[1] = qHTS Assay for Lipid Storage Modulators (AID 1519); conditions: Drosophila S3 cells, BODIPY lipid droplet/cell ratio, laser cytometry, cells loaded with oleic acid
Outline: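 Cells seeded at 5,000 per well were treated with compounds over a concentration series and loaded with oleic acid (400 uM, as added). Lipid droplet fluorescence (488 nm excitation, 500-530 nm channel) was read by laser-scanning cytometry and normalized to 20 uM Triacsin C.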

[2] = qHTS assay for small molecule antagonists of androgen receptor signaling (AID 588516); conditions: AR-UAS-bla HEK293, beta-lactamase ratio, antagonist mode, 16 h
Outline: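 Cells were plated and incubated 5 h, compounds added in titration, then R1881 (10 nM final) as agonist. After 16 h at 37 C, CCF4 substrate was loaded for 2 h at room temperature and fluorescence measured.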

[3] = qHTS assay for small molecule antagonists of peroxisome proliferator-activated receptor delta signaling (AID 588535); conditions: HEK293T PPARd-UAS-bla, beta-lactamase FRET ratio, 18 h; 460 nm channel;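 also: cells co-treated with a PPAR-delta agonist as stimulator during compound exposure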
Outline: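 HEK293T PPAR-delta-UAS-bla cells, 4000/well, 2% charcoal/dextran FBS; 5 h 37 C; cpd titration; 18 h 37 C; CCF4 2 h RT; FI 460/530 nm; Hill fit → IC50, efficacy.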

[4] = qHTS assay for small molecule antagonists of peroxisome proliferator-activated receptor gamma signaling (AID 588537); conditions: HEK293 PPARg-UAS-bla, beta-lactamase ratio, antagonist mode; measured here: W460 blue channel
Outline: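 Antagonist mode, beta-lactamase reporter in HEK293; charcoal/dextran FBS 1%; 3000 cells/well, 37 C 6-6.5 h; cpd titration + rosiglitazone 50 nM final, 16 h 37 C; CCF4, 2 h RT; 460/530 nm; Hill fit → IC50, efficacy.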

[5] = qHTS assay for small molecule agonists of retinoid X receptor alpha signaling (AID 588544); conditions: HEK293T RXRa-UAS-bla, beta-lactamase reporter, 18 h; 530 nm emission
[6] = qHTS assay for small molecule antagonists of retinoid X receptor alpha signaling (AID 588546); conditions: HEK293T RXRa-UAS-bla, beta-lactamase ratio, antagonist mode; measured here: W530 green channel, cytotoxicity proxy;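 also: cells stimulated with 9-cis-retinoic acid as agonist; % is scaled to controls: 0 for no effect and ±100 for the full control effect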
Outline: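 Beta-lactamase reporter inhibition, read as CCF4 fluorescence ratio (ex 405, em 460/530 nm) after 2 h at RT. HEK293T UAS-bla cells, 2500/well, were stimulated with 9-cis-RA at 500 or 100 nM final alongside test compound for 18 h at 37 C.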

[7] = NCATS anti-infectives library activity on the primary C. elegans qHTS viability assay (AID 1745855); conditions: C. elegans worm area imaging
Outline: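 Viability read-out is GFP fluorescence of PE254-GFP-FLuc C. elegans, measured by laser cytometry (488 nm) at day 0, 3 and 7. Ten L1 worms per well were incubated 7 days at 21 °C with compounds and bacterial capsules in S medium.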

[8] = qHTS drug screen for cell cycle checkpoint inhibitors in PARPi-resistant BRCA-mutant ovarian cancer cell lines. (AID 1963452); conditions: PEO1/OlaR viability, CellTiter-Glo luminescence, 96 h
Outline: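 PEO1, PEO4 and PEO1/OlaR ovarian cancer cells, 600 per well, exposed 96 h at 37C to a dilution series. Viability read by CellTiter-Glo luminescence, normalized to DMSO and empty wells; activity summarized as Z-AUC.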

[9] = qHTS for identification of novel therapeutic agents for treatment of microphthalmiaassociated transcription factor (MiT) renal cell carcinoma (RCC) (AID 1963991); conditions: CellTiter-Glo, 48 h; for z-score: stronger effect = lower value
Outline: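 Curves over 11 concentrations were fitted to CellTiter-Glo luminescence, scaled between empty wells (0%) and DMSO (100%) viability. Cells were UOK109, UOK124 and UOK145 TFE3-fusion RCC lines at 500/well, exposed 48 hours at 37 C.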

[10] = qHTS Assay for Modulators of Human Peripheral Myelin Protein 22 (PMP22) Expression/Activity (AID 1967); conditions: Cell-based PMP22 reporter, dual-color luciferase ratio
Outline: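 Readout is the corrected green/red luminescence ratio after 24 h compound exposure, normalised to untreated cells (0%). Engineered MSC80 mouse Schwann cells express green luciferase from the mouse Pmp22 promoter and red luciferase from EF-alpha as internal control.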

[11] = qHTS Validation Assay to Find Inhibitors of Chronic Active B-Cell Receptor Signaling (AID 485345); conditions: ABC-DLBCL cells, chronic BCR signaling reporter
Outline: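 Read-out: ratio of filter-corrected green (IkappaBalpha fusion) to red (native) luciferase signal in doxycycline-induced TMD8 cells after 4 h at 37C. Titration spanned 46 uM–3 nM; Data were normalised to basal cells and 10 uM MG-132 wells.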

[12] = qHTS assay for small molecule antagonists of glucocorticoid receptor signaling (AID 588533); conditions: HeLa MMTV-bla, GRE beta-lactamase ratio, antagonist mode, 18 h; measured here: W530 channel AC50;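 also: cells stimulated with 2 nM dexamethasone as agonist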
[13] = S16 Schwann cell PMP22 intronic element beta-lactamase assay (AID 624044); conditions: S16 rat Schwann cells, PMP22 element beta-lactamase FRET, 24 h; measured here: 460 nm blue channel; also: nearly all actives have a fitted effect of over 15% in size
Outline: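 Rat S16 Schwann cells with beta-Lac driven by a PMP22 intronic element, compound-treated 24 h at 37 °C. LiveBLAzer FRET B/G read: 460 nm normalized to potassium clavulanate vs DMSO; 535 nm FRET as viability; concentration-effect curves classified.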

[14] = A High-Content qHTS Against Drug Library for the Identification of Small Molecules that Inhibit DYT1 Early Onset Primary Dystonia-Associated Cell Pathology (AID 1645839); conditions: HEK293 Flp-In EGFP-delE TorsinA, punctate imaging, 48 h; measured here: cell count cytotoxicity
Outline: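 In this high-content image screen, delE TorsinA mislocalization in inducible Flp-In 293 cells is scored as %pathology, with cell count serving as the counterscreen. Compound exposure lasts 48 h under tetracycline induction in reduced-serum medium.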

[15] = measured here: cell count channel max response
[16] = measured here: cell number channel AC50
[17] = measured here: lipid (BODIPY) channel AC50
[18] = measured here: lipid channel max response
[19] = measured here: W460 blue channel fit
[20] = TFE3-RCC UOK109 viability, measured here: UOK109 Z-AUC
[21] = TFE3-RCC viability, measured here: UOK124 Z-AUC
[22] = TFE3-RCC viability, measured here: UOK124 cell viability
[23] = TFE3-RCC viability, measured here: UOK145 Z-AUC
[24] = TFE3-RCC viability, measured here: UOK145 cell viability
[25] = measured here: green reporter channel AC50, mouse Pmp22 promoter in mouse Schwann cells
[26] = measured here: red reporter channel AC50, EF-alpha promoter control reporter in MSC80 mouse Schwann cells
Tags tell the direction and shape of the fitted curve.

SMILES: COc1cc2c(cc1OC)-c1c(OC)c(OC)c(CO)c3c1C(C2)N(C)CC3 (stereo unspecified)
- max response [1, 15]: 103%
- AC50 [1, 16]: 1 µM [rising, full curve]
- AC50 [1, 17]: 1.12 µM [rising, full curve]
- max response [1, 18]: 122%

SMILES: CC(CCC(=O)O)C1CCC2C3C(=O)C[C@@H]4CC(=O)CC[C@@]4(C)C3CC(=O)[C@]12C (stereo partly specified)
- max response [1, 15]: 37.2%
- AC50 [1, 16]: 6.31 µM [rising, full curve]
- AC50 [1, 17]: 3.16 µM [rising, partial curve]
- max response [1, 18]: 13.3%

SMILES: O=C(NC[C@H]1CCCCN1)c1cc(OCC(F)(F)F)ccc1OCC(F)(F)F
- max response [1, 15]: 54.8%
- AC50 [1, 16]: 31.6 µM [rising, partial curve, poor fit]
- AC50 [1, 17]: 31.6 µM [rising, partial curve, poor fit]
- max response [1, 18]: 73.6%

SMILES: CC(C)C[C@H]1C(=O)N2CCC[C@@H]2[C@]2(O)O[C@](NC(=O)[C@@H]3C=C4c5cccc6[nH]c(Br)c(c56)C[C@H]4N(C)C3)(C(C)C)C(=O)N12
- max response [1, 15]: 67.5%
- AC50 [1, 16]: 7.08 µM [rising, full curve, poor fit]
- AC50 [1, 17]: 4.47 µM [rising, full curve, poor fit]
- max response [1, 18]: 55.5%

SMILES: CCCCCC[C@H]1C(=O)O[C@H](C)[C@H](NC(=O)c2cccc(NC=O)c2O)C(=O)O[C@@H](C)[C@@H]1OC(=O)CC(C)C
- max response [1, 15]: 48.6%
- AC50 [1, 16]: 0.0562 µM [rising, full curve, poor fit]
- AC50 [1, 17]: 0.126 µM [falling, full curve]
- max response [1, 18]: -90.4%
- AC50 [2, 19]: 15.8 µM [falling, partial curve, poor fit]
- AC50 ([2]; measured here: W530 green channel, cytotoxicity/artifact): 0.01 µM [rising, full curve, poor fit]
- max response [3]: 14.4%
- AC50 [4]: 5.62 µM [falling, full curve]
- max response [5]: -9.51%
- max response [6]: 11.5%
- AC50 ([7]; day 7, measured here: worm number): 2.05 µM [falling, full curve]
- AC50 ([7]; day 7, measured here: worm area, day 3): 0.205 µM [falling, full curve, poor fit]
- AC50 ([8]; measured here: PEO1 parental viability): 0.219 µM [falling, full curve]
- AC50 ([8]; measured here: PEO4 viability): 0.616 µM [falling, full curve]
- z-score [9, 20]: -0.308
- z-score [9, 21]: -0.0808
- AC50 [9, 22]: 16.6 µM [falling, partial curve]
- z-score [9, 23]: -1.21
- AC50 [9, 24]: 0.0418 µM [falling, partial curve, poor fit]

SMILES: Cc1cc(C(C)(C)C)cc(C)c1CC1=NCCN1
- max response [1, 15]: 26.1%
- AC50 [1, 16]: 25.1 µM [falling, partial curve, poor fit]
- AC50 [1, 17]: 17.8 µM [falling, partial curve, poor fit]
- max response [1, 18]: 25.6%
- AC50 [10, 25]: 75.7 µM [falling, single point]
- AC50 [10, 26]: 84.9 µM [falling, single point]

SMILES: C=C(C)[C@H]1Cc2c(ccc3c2O[C@@H]2COc4cc(OC)c(OC)cc4[C@@H]2C3=O)O1
- max response [1, 15]: 40.4% and -8.11%
- AC50 [1, 16]: 14.1 µM [rising, partial curve, poor fit]
- AC50 [1, 17]: 794 nM [falling, full curve] and 20 nM [falling, full curve]
- max response [1, 18]: -57.1% and -82.6%
- AC50 [10, 25]: 0.0601 µM [falling, full curve]
- AC50 [10, 26]: 0.0478 µM [falling, full curve]
- AC50 ([11]; measured here: CBG/CBR ratio read-out): 18.4 µM [falling, partial curve]
- AC50 ([11]; measured here: CBR control luciferase (viability counter)): 25.9 µM [rising, single point]
- AC50 [2, 19]: 20 µM [falling, partial curve, poor fit]
- AC50 [12]: 0.0501 µM [falling, full curve, poor fit]
- max response [3]: -19.2%
- AC50 [4]: 39.8 µM [falling, partial curve, poor fit]
- max response [5]: 31.9%
- AC50 [13]: 0.00707 µM [falling, full curve, poor fit]
- AC50 [14]: 0.562 µM [falling, full curve, poor fit]
- z-score [9, 20]: -0.196
- z-score [9, 21]: -1.03
- AC50 [9, 22]: 4.18 µM [falling, partial curve]
- z-score [9, 23]: -0.141
- AC50 [9, 24]: 2.96 µM [falling, full curve]

SMILES: O=C1OC(=O)C2C3CCC(O3)C12 (stereo unspecified)
- max response [1, 15]: -4.01%
- AC50 [1, 16]: 15.8 µM [falling, single point]
- AC50 [1, 17]: 15.8 µM [falling, single point]
- max response [1, 18]: -0.167%
- AC50 [10, 26]: 75.7 µM [falling, partial curve]

SMILES: CN1C2CCC1CC(OC(c1ccccc1)c1ccccc1N)C2 (stereo unspecified)
- max response [1, 15]: -11.4%
- AC50 [1, 16]: 7.08 µM [falling, partial curve, poor fit]
- AC50 [1, 17]: 12.6 µM [falling, partial curve, poor fit]
- max response [1, 18]: -5.52%
- AC50 [10, 26]: 84.9 µM [falling, single point]
